Results as given in US11713344B2 (DONG-A ST CO., LTD., priority 2017, dated 2023).
Entries after “also recorded” stand apart in the source; their conditions may differ. For some assays here: At least one peptide structure holds a part that was inferred or is arguable (an end, a ring closure or a residue). At least one structure is not confirmed: it was looked up by name or label, or the drawing left a doubt. Some of these results come from one statement about several compounds together. Some compounds share one range, which may span the group rather than tell each member.

Columns and labels:
[1] = Glycemic control efficacy by 6-week repeated injection, diabetes mouse model (Exp. Ex. 13); type: in vivo; details: db/db mice
[2] = Body weight loss efficacy by 10-day repeated injection, Compounds 3, 10, 14, obese mice (Exp. Ex. 6); type: in vivo, C57BL/6 mouse; details: 100 nmol/kg s.c. once every 3 days x 4, 10 days
Human GLP-1 receptors = Human GLP-1 receptors (Homo sapiens, UniProt P43220); assay: GLP-1 receptor activation assay (CRE-luciferase reporter, CHO-K1); details: comparison in text of Table 5 results
Human GLP-1 receptors, sequence (P43220 24-463): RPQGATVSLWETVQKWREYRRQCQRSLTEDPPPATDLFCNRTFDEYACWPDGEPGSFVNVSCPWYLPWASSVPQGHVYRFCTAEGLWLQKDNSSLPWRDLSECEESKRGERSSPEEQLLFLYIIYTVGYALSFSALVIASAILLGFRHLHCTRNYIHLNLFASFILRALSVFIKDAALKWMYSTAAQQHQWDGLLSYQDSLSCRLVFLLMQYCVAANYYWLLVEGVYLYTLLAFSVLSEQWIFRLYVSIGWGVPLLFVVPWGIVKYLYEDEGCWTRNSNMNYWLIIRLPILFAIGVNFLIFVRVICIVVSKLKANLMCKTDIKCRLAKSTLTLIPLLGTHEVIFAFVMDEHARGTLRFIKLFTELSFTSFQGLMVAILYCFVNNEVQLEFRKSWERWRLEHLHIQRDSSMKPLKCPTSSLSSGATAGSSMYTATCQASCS

[3] = Body weight loss efficacy by 1-week repeated injection, obese mice (Exp. Ex. 3); type: in vivo, C57BL/6 mouse
[4] = Body weight loss efficacy by 5-day repeated injection vs Liraglutide and MEDI0382, obese mice (Exp. Ex. 10); type: in vivo, C57BL/6 mouse; details: 30 nmol/kg s.c. once a day x 4
Protocol: Male laboratory mice (C57BL/6 mouse) were given diet containing high fat. The mice with high-fat-diet-induced obesity were grouped by body weight before beginning the experiment. […] Body weight and food intake was measured once per day, at the same time each day.

[5] = Body weight loss efficacy by 4-week repeated injection, obese diabetic mice (Exp. Ex. 11); type: in vivo, FATZO mouse; details: FATZO mice, 30 and 100 nmol/kg s.c. once every 3 days x 10, vs Semaglutide 100 nmol/kg
[6] = Body weight loss efficacy by 10-day repeated injection vs Semaglutide, obese mice (Exp. Ex. 5); type: in vivo, C57BL/6 mouse
[7] = Body weight loss efficacy by single injection, obese mice (Exp. Ex. 2); type: in vivo, C57BL/6 mouse; details: single s.c. 100 nmol/kg
[8] = Glycemic control efficacy by 4-week repeated injection, obese diabetic mice (Exp. Ex. 14); type: in vivo, FATZO mouse; details: FATZO mice, 30 or 100 nmol/kg s.c. once every 3 days x 10, 4 weeks
[9] = Body weight loss efficacy by 5-day repeated injection, obese rats (Exp. Ex. 4); type: in vivo, Wistar rat
Human glucagon receptors = Human glucagon receptors (Homo sapiens, UniProt P47871); assay: Glucagon receptor activation assay (CRE-luciferase reporter, CHO-K1); details: comparison in text of Table 5 results
Human glucagon receptors, sequence (P47871 26-477): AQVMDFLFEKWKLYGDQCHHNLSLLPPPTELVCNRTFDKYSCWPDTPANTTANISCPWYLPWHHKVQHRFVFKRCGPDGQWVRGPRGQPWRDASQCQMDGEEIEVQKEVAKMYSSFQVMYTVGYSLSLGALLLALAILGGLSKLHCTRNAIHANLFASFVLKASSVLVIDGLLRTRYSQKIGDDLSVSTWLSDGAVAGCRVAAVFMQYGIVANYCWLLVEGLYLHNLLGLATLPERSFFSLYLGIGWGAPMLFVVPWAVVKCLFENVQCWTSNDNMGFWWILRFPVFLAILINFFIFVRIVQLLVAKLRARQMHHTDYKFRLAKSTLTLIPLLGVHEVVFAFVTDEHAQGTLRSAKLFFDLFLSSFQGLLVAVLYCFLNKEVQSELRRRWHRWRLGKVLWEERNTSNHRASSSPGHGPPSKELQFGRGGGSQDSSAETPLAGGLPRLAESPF

[10] = Body weight loss efficacy by 2-week repeated injection, low doses, obese mice (Exp. Ex. 9); type: in vivo, C57BL/6 mouse
[11] = 100 nmol/kg s.c. once every 3 days x 16, 6 weeks
[12] = 100 nmol/kg s.c. once a day x 6

CCCCCCCCCCCCCCCCCC(=O)N[C@@H](CCC(=O)NCCOCCOCC(=O)NCCOCCOCC(=O)NCCCC[C@H](NC(=O)[C@H](CC(=O)O)NC(=O)[C@H](CO)NC(=O)[C@@H](NC(=O)[C@H](Cc1ccccc1)NC(=O)[C@@H](NC(=O)CNC(=O)[C@H](CCC(N)=O)NC(=O)C(C)(C)NC(=O)[C@@H](N)Cc1c[nH]cn1)[C@@H](C)O)[C@@H](C)O)C(=O)N[C@@H](CO)C(=O)N[C@@H](CCCCN)C(=O)N[C@@H](Cc1ccc(O)cc1)C(=O)N[C@@H](CC(C)C)C(=O)N[C@@H](CC(=O)O)C(=O)NC(C)(C)C(=O)N[C@@H](CCCNC(=N)N)C(=O)N[C@@H](CCCNC(=N)N)C(=O)N[C@@H](C)C(=O)N[C@@H](CCC(N)=O)C(=O)N[C@@H](CC(=O)O)C(=O)N[C@@H](Cc1ccccc1)C(=O)N[C@H](C(=O)N[C@@H](CCC(N)=O)C(=O)N[C@@H](Cc1c[nH]c2ccccc12)C(=O)N[C@@H](CC(C)C)C(=O)N[C@@H](CCSC)C(=O)N[C@@H](CC(N)=O)C(=O)N[C@H](C(=O)N[C@@H](CCCCN)C(=O)O)[C@@H](C)O)C(C)C)C(=O)O [Compound 3]
final glycated hemoglobin (HbA1c) increase over initial level [1, 11]: 1.73 % points | final non-fasting blood glucose [1, 11]: 274 mg/dL | glycemic control efficacy (in words) ([1]; 100 nmol/kg, after long-term administration): better glycemic control efficacy than Semaglutide | body weight loss efficacy from initial body weight [2]: 19-22% | cumulative food intake reduced against vehicle control group [2]: approximately 17% | activity on GLP-1 receptors (in words) (Human GLP-1 receptors): much higher activity on GLP-1 and glucagon receptors than comparative example Compound 39; also recorded: outstanding activity on GLP-1 and glucagon receptors | body weight loss [3, 12]: approximately 24.6% | cumulative food intake (in words) [3, 12]: no significant difference in cumulative food intake between Compound 3 and Liraglutide groups | body weight loss ([3]; 300 nmol/kg s.c. once a day x 6): approximately 37.8% | body weight after discontinuation (in words) ([3]; administration stopped on day 7): maintained lower body weight against vehicle control group even after discontinuation | body weight loss effect against Liraglutide (in words) ([3]; s.c. once a day x 6): more than double the dose-dependent body weight loss effect against Liraglutide | body weight loss from baseline [4]: 18.6% | body weight reduction efficacy (in words) [5]: highly superior body weight reduction efficacy against Semaglutide | cumulative food intake (in words) [5]: higher cumulative food intake | cumulative food intake (in words) ([6]; 100 nmol/kg s.c. once every 3 days x 4): higher cumulative food intake against Semaglutide | body weight loss efficacy ([6]; 100 nmol/kg s.c. once every 3 days x 4, 10 days): 13.9% | body weight loss ([6]; 300 nmol/kg s.c. once every 3 days x 4, 10 days): approximately 16.9% | body weight loss against control group (in words) [7]: body weight loss was seen | cumulative food intake against vehicle control (in words) [7]: no significant difference in cumulative food intake against the control group | duration of body weight loss effect [7]: 4 days | glycemic control efficacy and glycated hemoglobin elevation inhibition (in words) [8]: outstanding glycemic control efficacy and glycated hemoglobin elevation inhibition at similar levels as Semaglutide | body weight loss efficacy ([9]; 100 nmol/kg s.c. once a day x 4): approximately 12.5% | body weight loss efficacy ([9]; 300 nmol/kg s.c. once a day x 4): approximately 12.5% | cumulative food intake against vehicle control (in words) ([9]; 100 or 300 nmol/kg s.c. once a day x 4): significant difference in cumulative food intake against vehicle control group | body weight after discontinuation (in words) ([9]; administration stopped on day 5): Lower body weight against vehicle control was maintained even after discontinuation | activity on glucagon receptors (in words) (Human glucagon receptors): much higher activity on GLP-1 and glucagon receptors than comparative example Compound 39; also recorded: outstanding activity on GLP-1 and glucagon receptors

CCCCCCCCCCCCCCCCCC(=O)N[C@@H](CCC(=O)NCCOCCOCC(=O)NCCOCCOCC(=O)NCCCC[C@H](NC(=O)[C@H](CC(=O)O)NC(=O)[C@H](CO)NC(=O)[C@@H](NC(=O)[C@H](Cc1ccccc1)NC(=O)[C@@H](NC(=O)CNC(=O)[C@H](CCC(N)=O)NC(=O)C(C)(C)NC(=O)[C@@H](N)Cc1c[nH]cn1)[C@@H](C)O)[C@@H](C)O)C(=O)N[C@@H](CO)C(=O)N[C@@H](CCCCN)C(=O)N[C@@H](Cc1ccc(O)cc1)C(=O)N[C@@H](CC(C)C)C(=O)N[C@@H](CC(=O)O)C(=O)N[C@H]1CSCc2cccc(c2)CSC[C@@H](C(=O)N[C@@H](CC(=O)O)C(=O)N[C@@H](Cc2ccccc2)C(=O)N[C@H](C(=O)N[C@@H](CCC(N)=O)C(=O)N[C@@H](Cc2c[nH]c3ccccc23)C(=O)N[C@@H](CC(C)C)C(=O)N[C@@H](CCSC)C(=O)N[C@@H](CC(N)=O)C(=O)N[C@H](C(=O)N[C@@H](CCCCN)C(=O)O)[C@@H](C)O)C(C)C)NC(=O)[C@H](C)NC(=O)[C@H](CCCNC(=N)N)NC(=O)[C@H](CCCNC(=N)N)NC1=O)C(=O)O [Compound 22, H-HAibQGTFTSDZSKYLDCRRACDFVQWLMNTK-OH]
body weight loss efficacy ([10]; 10 nmol/kg s.c. once every 3 days x 5): 7.5% | food intake (in words) ([10]; 30 nmol/kg s.c. once every 3 days x 5): higher food intake than Compound 3 at the same dose | cumulative food intake (in words) ([10]; same dosage (10 or 30 nmol/kg) s.c. once every 3 days x 5): higher cumulative food intake compared to Compound 3 | body weight reduction efficacy (in words) [5]: highly superior body weight reduction efficacy against Semaglutide | cumulative food intake (in words) [5]: higher cumulative food intake | glycemic control efficacy and glycated hemoglobin elevation inhibition (in words) [8]: outstanding glycemic control efficacy and glycated hemoglobin elevation inhibition at similar levels as Semaglutide
